{"source": "patent US20230122393A1", "about": "“STEROIDAL NITRONE F2 FOR USE IN THE PREVENTION AND/OR TREATMENT OF PERMANENT CEREBRAL ISCHAEMIA” (ISQUAEMIA BIOTECH, S.L., priority 2020, published 2023)", "key": {"global cerebral ischemia": {"system": "global cerebral ischemia", "assay": "Neurological deficit score (NDS), therapy window study in global cerebral ischemia", "settings": "F2 0.05 mg/kg i.v. 0-6 hours after reperfusion; 5 d", "experimental": "Body temperature of 37° C. was maintained.\nEvaluation of neurological deficits.\nAnimals were subjected to a functional test before sacrifice in order to quantify their potential disability. In this test, a series of variables related to the general state of the animal (breathing, coordination, aspect, etc.) were assigned a mark corresponding to the degree of severity by which that variable is affected."}, "[1]": {"system": "permanent focal cerebral ischemia (pMCAO)", "assay": "Somatosensory evoked potentials after permanent MCA occlusion (pMCAO)", "settings": "F2 0.1 mg/kg i.p. at 2 and 12 h; non-damaged hemisphere, after stroke", "experimental": "FIG. 13. Evaluation of functional brain territory in stroke mice with pMCAO and treated with F2. (A) Representative somatosensory evoked contralateral potentials recorded before and 72 hours post-stroke in treated (F2) and non-treated (vehicle, control) mice. F2 was administered at 2 and 12 hours after MCA ligation. […] In both groups, the electrical stimulus was twice the current level necessary to obtain a supramaximal motor response, typically 1-2 mA. (B) Amplitude of evoked activity in the somatosensory cortex (forepaw sensory field) in the infarcted (left panel) and non-infarcted (right panel) hemispheres of non-treated (vehicle) and treated (F2) mice over time after stroke. The cartoons show the position of recording electrode in relation with the stimulated forepaw. Data are presented as the means ±SEM. For every time point analysed, the black asterisks denote significant differences between non-treated (vehicle) and treated (F2) mice (two-way ANOVA followed by Tukey's test; *p<0.05, **p<0.05).\nFIG. 14. Ipsilateral activity in stroke mice with pMCAO and treated with F2. […]\nThe analysis of ipsilateral potentials corroborated these findings. […] In fact, in treated animals (F2) the temporal course of ipsilateral response followed the dynamics of contralateral response determined in the damaged hemisphere (FIG. 13B, left panel). […]"}}, "data": [{"smiles": "CC(C)CCC[C@@H](C)[C@H]1CC[C@H]2[C@@H]3CCC4=C/C(=[N+](\\C)[O-])CC[C@]4(C)[C@H]3CC[C@]12C", "note": "[F2, (E)-N-((8S,9S,10R,13R,14S,17R)-10,13-dimethyl-17-((R)-6-methylheptan-2-yl)-7,8,9,11,12,13,14,15,16,17-decahydro-1H-cyclopenta[a]phenanthren-3(2H,6H,10H)-ylidene)methanamine oxide]", "values": [{"measurement": "neurological deficit score (NDS) vs vehicle", "setting": "global cerebral ischemia", "value": "improvement in the animal treated with F2 was observed with significative differences to the vehicle group"}, {"measurement": "ipsilateral potentials vs non-treated animals", "setting": "[1]", "value": "more preserved in F2 mice than in non-treated animals"}]}]}
